Assay results reported in PubChem BioAssay AID686979 (National Center for Advancing Translational Sciences (NCATS), 2013).
Among all 420,000 compounds or so, about 50,000 (12%) were called active. The inconclusive results got no clear call from the source; some entries with a clear call stand among them for comparison. Calls follow the shape of the dose curve; as a rule, active = well fitted inhibition curve with a large enough effect; inconclusive = small, poorly fitted or top-dose-only effect; inactive = flat fitted curve, though single readings scatter. Potencies of inconclusive entries are left out as doubtful fits.

assay: qHTS for Inhibitors of human tyrosyl-DNA phosphodiesterase 1 (TDP1): qHTS in cells in presence of CPT; conditions: chicken DT40 Tdp1-/-;hTDP1 cells + 20 nM CPT, ATP luminescence, 48 h; activity change, negative = growth inhibition: at 46.2 µM (top of the series) unless noted; also: nearly all actives have a fitted effect of over 55% in size
Outline: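 Chicken DT40 Tdp1-/- cells stably complemented with human TDP1 were seeded at 400 cells/well in medium containing 20 nM camptothecin, exposed to pin-transferred compounds, and grown at 37 °C for at least 48 hr. Viability was read as ATP luminescence.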
% is scaled to controls: 0 for no effect and ±100 for the full control effect; potency is read from the fitted curve at half-maximal effect; tags tell the direction and shape of the fitted curve.

| SMILES | Potency | activity change, negative = growth inhibition |
| --- | --- | --- |
| COc1ccc(OC)c(CCNC(=O)c2ccc(CS(=O)(=O)c3ccc(Br)cc3)o2)c1 | active: 20.6 µM |  |
| COc1ccc2cc(C#N)c(N3CCN(C(=O)c4ccccc4C)CC3)nc2c1 | inconclusive [inhibitor, single point] |  |
| NS(=O)(=O)OCC(Cc1ccccc1)N1C(=O)c2ccccc2C1=O (configuration not stated) | inconclusive [inhibitor, single point] |  |
| COc1cc(O)c(CCC(=O)c2ccc(OC)c(OC)c2)c(OC)c1 | active: 20.6 µM |  |
| CC1CCCCN1C(=O)CSc1nc2ccccc2nc1Cc1ccccc1 (configuration not stated) | inconclusive [inhibitor, single point] |  |
| Nc1cccc(-c2nc3ccc(C(=O)c4ccccc4)cc3[nH]2)c1 | active: 0.731 µM |  |
| CCCCn1c(N)c(N(CCOC)C(=O)COC(=O)COc2cccc(C(C)=O)c2)c(=O)[nH]c1=O |  | inactive: 2.81% |
| CCCCN(CCCC)CCNC(=O)CN1C(=O)COc2ccc(S(=O)(=O)N3CCOCC3)cc21 |  | inactive: -27.9% |
| OC(c1cccc(F)c1)c1ncc(-c2ccc(Oc3ccccc3)cc2)[nH]1 (configuration not stated) | inconclusive [inhibitor, single point] |  |
| COc1ccc(O)c(C(=O)c2cnn(C(=O)c3cccc(S(=O)(=O)N(C)C)c3)c2)c1 |  | inactive: -4.61% |
| N=c1c(C(=O)NC2CCCCC2)cc2c(=O)n3ccccc3nc2n1Cc1ccccc1 | inconclusive [inhibitor, single point] |  |
| Cc1ccc(C)c(C(=O)COC(=O)c2ccccc2N2C(=O)C3C4CCC(C4)C3C2=O)c1 (configuration not stated) | active: 20.6 µM |  |
| COc1ccc(-n2cc(C(=O)NCCc3ccc(C)cc3)c3ccccc3c2=O)cc1 | inconclusive [inhibitor, single point] |  |
| CC1(C(=O)NC2CCN(Cc3ccccc3)CC2)CCN1CCc1ccccc1 (configuration not stated) | active: 29.1 µM |  |
| COc1cc(-c2cc(N)n(S(=O)(=O)c3ccccc3)n2)cc(OC)c1OC | inconclusive [inhibitor, single point] |  |
| CCC(=O)N(Cc1cc2cc(OC)ccc2[nH]c1=O)c1cc(C)ccc1C | inconclusive [inhibitor, single point] |  |
| CC(C)c1ccc(-c2c(C#N)c(N)nc(SCC(=O)N3CCCCC3)c2C#N)cc1 | active: 9.2 µM |  |
| N/C(=N/O)c1nc(N2CCCCC2)nc(N2CCCCC2)n1 | inconclusive [inhibitor, partial curve, poor fit] |  |
| Cc1ccccc1N1C(=O)CC(N2CCC(C(N)=O)CC2)C1=O (configuration not stated) | inconclusive [inhibitor, single point] |  |
| Cc1cccc(Nc2ncnc3c2cnn3C)c1 |  | inactive: -18.4% |
| Cc1ccc(-c2nc3ccc(Cl)cn3c2Cc2cccc(Cl)c2)cc1 | inconclusive [inhibitor, single point] |  |
| COC(=O)c1ccc(C2CC(=O)Nc3c2c(C)nn3-c2nc(C)cc(C)n2)cc1 (configuration not stated) | inconclusive [inhibitor, single point] |  |
| C/C(=N/NC(=O)C1COc2ccccc2O1)c1ccco1 (configuration not stated) |  | inactive: -18% |
| O=C(Cn1ccc2cc(S(=O)(=O)N3CCCC3)ccc21)NCc1ccc(Cl)cc1 | inconclusive [inhibitor, partial curve] |  |

| SMILES | Potency | activity change, negative = growth inhibition |
| --- | --- | --- |
| CCN(CC)c1ccc(NC(=O)CN2CCN(S(=O)(=O)c3ccc(C(C)C)cc3)CC2)cc1 | inconclusive [inhibitor, single point] |  |
| Cc1cc(C)cc(NC(=O)CC(C)n2nc(C)cc2C)c1 (configuration not stated) | active: 20.6 µM |  |
| c1ccc2cc(CNCc3cccc4ccccc34)ccc2c1 |  | inconclusive: -31.5% [inhibitor] |
| CC1(c2cccc([N+](=O)[O-])c2)CC(C)(C)N(C(=O)c2ccccc2)c2ccccc21 (configuration not stated) | inconclusive [inhibitor, single point] |  |
| CCN(CC)S(=O)(=O)c1cc(C(=O)NCCN2CCOCC2)ccc1Cl |  | inactive: 4.82% |
| CCCC[C@@H]1CCCO[C@@](C(=O)NCc2ccccn2)(C(F)(F)F)C1 | active: 18.4 µM |  |
| O=C(c1ccc(Br)o1)N(Cc1ccccc1)Cc1ccccc1 | inconclusive [inhibitor, single point] |  |
| CC1CN(c2sc(S(C)(=O)=O)nc2S(=O)(=O)c2ccc(Cl)cc2)CC(C)O1 (configuration not stated) | inconclusive [inhibitor, single point] |  |
| O=C(N/N=C/c1ccccc1O)c1cc[n+]([O-])cc1 | active: 14.6 µM |  |
| CSc1ncccc1C(=O)OCC(=O)c1cc(C)n(C)c1C |  | inactive: -21.5% |
| C=C1C(=O)OC2C=C(CO)C3OC3C3OC3(C)CC(OC(=O)/C(=C/C)COC(C)=O)C12 (configuration not stated) | active: 1.3 µM |  |
| Cc1ccc(OCC(=O)N(Cc2ccccc2)c2ccccn2)cc1 |  | inactive: -14.7% |
| CC(=O)c1cccc(-c2cnc3c(NC=O)cc(-c4ccccc4F)cn23)c1 | inconclusive [inhibitor, single point] |  |
| CN(c1nc(-c2ccc(Br)cc2)cs1)C1CCS(=O)(=O)C1 (configuration not stated) | inconclusive [inhibitor, single point] |  |
| Cc1ccc(S(=O)(=O)N(C)C)cc1NC(=O)c1cncc(Br)c1 | active: 13 µM |  |
| CCN(CC(=O)NCc1ccc(F)cc1)C(=O)c1cccnc1SC |  | inactive: -0.941% |
| Cc1ccc2c(c1)N(CC(=O)N1CCOCC1)C(=O)CO2 |  | inactive: 18.3% |
| CCc1ccc(C(C)NC(=O)/C(C#N)=C\c2cn[nH]c2-c2ccccc2)cc1 (configuration not stated) | inconclusive [inhibitor, partial curve, poor fit] |  |
| Cc1ccc([N+](=O)[O-])cc1NCC(=O)NN |  | inactive: -0.0932% |
| CN(C)CCCN(C(=O)C1COc2ccccc2O1)c1nc2ccc(F)cc2s1 (configuration not stated) | inconclusive [inhibitor, partial curve] |  |
| Cc1c(C(=O)N(C)c2ccc(Cl)cc2)cnn1-c1ccccc1 | inconclusive [inhibitor, single point] |  |
| COc1ccc(C(=O)CCC(=O)N2CCN(c3cccc(Cl)c3)CC2)cc1 | active: 16.4 µM |  |
| Cc1ccc(C(=O)NCC(C)NC(=O)c2ccc(C)c(C)c2)cc1C (configuration not stated) | inconclusive [inhibitor, single point] |  |
